pIC50: −log10 of the molar value. The IC50 comes from the fitted curve, where viability falls to half of the control; a fit beyond the top or the lowest dose is shown as a bound at that dose. AUC sums up the same curve from the lowest dose to the 256-fold higher top dose; it is 1 without any effect and falls as sensitivity rises. For some of these results: The top dose, if marked as inferred, was calculated from the reported fits. For some of these results: An entry number marks a drug with two screens in the source, which often give different values.
Tests used:
Assay in all cases: Viability of human cancer cell lines after 72 h of drug (GDSC screen)
[1] = compound: CC/C(=C(\c1ccccc1)c1ccc(OCCN(C)C)cc1)c1ccccc1 [Tamoxifen]; details: top dose 5 µM
Experimental: (§1)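 Human cancer cell lines in 384-well plates, medium with 10% serum, drug for 72 h over a 256-fold dose range (nine 2-fold or five 4-fold steps up to the top dose). Adherent lines were fixed and stained with the nucleic acid dye Syto60, suspension lines read with resazurin; signal relative to control wells, capped at 0 and 100%. One two-parameter sigmoid per drug and line, fitted in a mixed model over all curves with the slope shared within a line.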

[2] = compound: CCCC(=O)OCc1ccc(OC(=O)/C=C(C)/C=C/C=C(C)/C=C/C2=C(C)CCCC2(C)C)cc1 [VNLG/124]; details: top dose 5.12 µM; top dose inferred
Experimental: as §1

[3] = compound: O=C(/C=C/c1ccc(CN(CCO)CCc2c[nH]c3ccccc23)cc1)NO [LAQ824]; details: top dose 1.024 µM; top dose inferred
Experimental: as §1

[4] = compound: Cc1ccc(NC(=O)c2ccc(CN3CCN(C)CC3)cc2)cc1Nc1nc(-c2cccnc2)cs1 [Masitinib]; details: top dose 20 µM
Experimental: as §1

[5] = compound: O=C(Nc1ccc(OC(F)(F)F)cc1)c1sccc1NCc1ccnc2ccccc12 [OSI-930]; details: top dose 10.24 µM
Experimental: as §1

[6] = compound: Cc1c(N)nc([C@H](CC(N)=O)NC[C@H](N)C(N)=O)nc1C(=O)N[C@H](C(=O)N[C@H](C)[C@@H](O)[C@H](C)C(=O)N[C@H](C(=O)NCCc1nc(-c2nc(C(=O)NCCC[S+](C)C)cs2)cs1)[C@@H](C)O)[C@@H](OC1OC(CO)C(O)C(O)C1OC1OC(CO)C(O)C(OC(N)=O)C1O)c1cnc[nH]1 [Bleomycin]
Experimental: as §1

[7] = compound: O=C(Nc1cccc(Nc2ncc(Br)c(NCCc3cnc[nH]3)n2)c1)N1CCCC1 [BX-912]; details: top dose 10.24 µM; top dose inferred
Experimental: as §1

[8] = compound: O=S(=O)(O)c1ccc2cc(N=Nc3cc(S(=O)(=O)O)c4cccnc4c3O)ccc2c1 [NSC-87877]; details: top dose 16 µM; top dose inferred
Experimental: as §1

[9] = top dose 50 µM, screen: GDSC drug entry 1378, top dose inferred
[10] = top dose 64 µM, screen: GDSC drug entry 190

Cell Line | AUC [1] | pIC50 [1] | AUC [2] | pIC50 [2] | AUC [3] | pIC50 [3] | AUC [4] | pIC50 [4] | AUC [5] | pIC50 [5] | AUC [6, 9] | pIC50 [6, 9] | AUC [6, 10] | pIC50 [6, 10] | AUC [7] | pIC50 [7] | AUC [8] | pIC50 [8]
MKN1 (stomach, adherent) | 0.982 | < 5.30 | 0.982 | < 5.29 | 0.514 | 7.15 | 0.958 | < 4.70 | 0.981 | < 4.99 | 0.687 | 4.97 | 0.238 | 6.18 | 0.905 | < 4.99 | 0.986 | < 4.80
SW156 (kidney, adherent) | 0.984 | < 5.30 | 0.986 | < 5.29 | 0.528 | 7.11 | 0.927 | < 4.70 | 0.973 | < 4.99 | 0.836 | 4.41 | 0.492 | 5.42 | 0.965 | < 4.99 | 0.986 | < 4.80
H2818 (mesothelioma, adherent) | 0.988 | < 5.30 | 0.989 | < 5.29 | 0.817 | 6.23 | 0.978 | < 4.70 | 0.988 | < 4.99 | 0.586 | 5.27 | 0.701 | 4.83 | 0.963 | < 4.99 | 0.989 | < 4.80
SNU-398 (liver, adherent) | 0.976 | < 5.30 | 0.976 | < 5.29 | 0.277 | 7.84 | 0.894 | < 4.70 | 0.984 | < 4.99 | 0.61 | 5.20 | 0.03 | > 6.60 | 0.863 | 5.03 | 0.986 | < 4.80
NCI-H2030 (lung adenocarcinoma, adherent) | 0.939 | < 5.30 | 0.978 | < 5.29 | 0.462 | 7.30 | 0.874 | < 4.70 | 0.953 | < 4.99 | 0.616 | 5.17 | 0.513 | 5.36 | 0.918 | < 4.99 | 0.983 | < 4.80
SW1463 (large intestine, adherent) | 0.975 | < 5.30 | 0.963 | < 5.29 | 0.695 | 6.47 | 0.905 | < 4.70 | 0.972 | < 4.99 | 0.938 | < 4.30 | 0.637 | 4.90 | 0.974 | < 4.99 | 0.953 | < 4.80
ML-1 (thyroid, adherent) | 0.982 | < 5.30 | 0.942 | < 5.29 | 0.351 | 7.64 | 0.919 | < 4.70 | 0.984 | < 4.99 | 0.838 | 4.37 | 0.396 | 5.71 | 0.835 | 5.07 | 0.984 | < 4.80
LC-2-ad (lung adenocarcinoma, adherent) | 0.983 | < 5.30 | 0.973 | < 5.29 | 0.234 | 7.97 | 0.776 | 5.09 | 0.941 | < 4.99 | 0.471 | 5.59 | 0.1 | > 6.60 | 0.734 | 5.52 | 0.985 | < 4.80
HSC-3 (head and neck, adherent) | 0.956 | < 5.30 | 0.987 | < 5.29 | 0.344 | 7.60 | 0.919 | < 4.70 | 0.979 | < 4.99 | 0.072 | > 6.71 | 0.229 | 6.12 | 0.979 | < 4.99 | 0.969 | < 4.80
NCI-H2085 (lung adenocarcinoma, adherent) | 0.982 | < 5.30 | 0.965 | < 5.29 | 0.488 | 7.23 | 0.905 | < 4.70 | 0.956 | < 4.99 | 0.864 | 4.30 | 0.415 | 5.64 | 0.962 | < 4.99 | 0.986 | < 4.80
NCI-H2170 (lung squamous cell carcinoma, adherent) | 0.977 | < 5.30 | 0.983 | < 5.29 | 0.431 | 7.39 | 0.964 | < 4.70 | 0.97 | < 4.99 | 0.869 | 4.30 | 0.093 | > 6.60 | 0.942 | < 4.99 | 0.987 | < 4.80
COR-L32 (small cell lung carcinoma, suspension) | 0.926 | < 5.30 |  |  |  |  |  |  |  |  | 0.911 | < 4.30 |  |  |  |  |  | 
HLE (liver, adherent) | 0.964 | < 5.30 | 0.95 | < 5.29 | 0.5 | 7.19 | 0.969 | < 4.70 | 0.984 | < 4.99 | 0.533 | 5.42 | 0.486 | 5.44 | 0.978 | < 4.99 | 0.971 | < 4.80
KALS-1 (glioma, adherent) | 0.915 | < 5.30 | 0.977 | < 5.29 | 0.604 | 6.86 | 0.864 | < 4.70 | 0.979 | < 4.99 | 0.813 | 4.39 | 0.625 | 5.00 | 0.923 | < 4.99 | 0.978 | < 4.80
769-P (kidney, adherent) | 0.953 | < 5.30 | 0.983 | < 5.29 | 0.383 | 7.53 | 0.756 | 5.13 | 0.982 | < 4.99 | 0.5 | 5.51 | 0.163 | 6.48 | 0.923 | < 4.99 | 0.976 | < 4.80

Source: the supplement of paper PMC4967469
